Source: US4096112A, “2-Phenyl-indole derivative stabilizers for PVC resins” (Labaz, priority 1976, dated 1978)
Some values that stand alone complete this part of the results.

Test: Thermostability of the stabilizers: differential thermoanalysis
Type: physicochemical
Conditions: 2° C/minute, 2 mg
Method: The thermostability of Stabilizer 2 and that of 2-phenyl-indole were studied by differential thermoanalysis and by thermogravimetric analysis.
Differential thermoanalysis diagrams were drawn up by studying 2 mg samples of material placed in a non-airtight container, the rate of temperature increase being 2° C/minute and sensitivity 4 mcal/sec.
The diagrams were made out for 2-phenyl-indole (i) and Compound 2 (ii) and enabled the following conclusions to be drawn: […]

Compound: c1ccc(-c2cc3ccccc3[nH]2)cc1 [2-phenyl-indole]
- Sublimation temperature (marked sublimation at melting point): 185-190 °C
- Sublimation temperature (sublimation begins): 140 °C
